# This is one part of the list.
# B1: CLEC-6 (Homo sapiens), Q8WXI8 (protein)
# chain: MGLEKPQSKLEGGMHPQLIPSVIAVVFILLLSVCFIASCLVTHHNFSRCKRGTGVHKLEHHAKLKCIKEKSELKSAEGSTWNCCPIDWRAFQSNCYFPLTDNKTWAESERNCSGMGAHLMTISTEAEQNFIIQFLDRRLSYFLGLRDENAKGQWRWVDQTPFNPRRVFWHKNEPDNSQGENCVVLVYNQDKWAWNDVPCNFEASRICKIPGTTLN
# Columns and labels:
# Experiment in all cases: glycan array binding signal (z-score within array); higher = stronger binding
# Details in all cases: glycan notation: IUPAC condensed, linker removed
# [1] = molecular target: GlcNAc(b1-3)Gal(b1-4)GlcNAc
# How it was run: (§1)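 From the Consortium for Functional Glycomics database, 3228 arrays were curated, keeping only those whose protein sequence was available. Binding is given as a within-array Z-score averaged across arrays sharing a protein sequence and across linkers. Negative Z-scores can be read as non-binding.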
# [2] = molecular target: GlcNAc(b1-3)Gal(b1-4)GlcNAc(b1-3)Gal(b1-4)GlcNAc
# How it was run: as §1
# GlcNAc(b1-3)GalNAc = molecular target: GlcNAc(b1-3)GalNAc
# How it was run: as §1
# [3] = molecular target: GlcNAc(b1-3)[GlcNAc(b1-6)]Gal(b1-4)GlcNAc
# How it was run: as §1
# [4] = molecular target: GlcNAc(b1-3)[GlcNAc(b1-6)]GalNAc
# How it was run: as §1
# [5] = molecular target: GlcNAc(b1-3)[GlcNAc(b1-6)]GlcNAc(b1-4)GlcNAc
# How it was run: as §1
# [6] = molecular target: GlcNAc(b1-4)Gal(b1-4)GlcNAc
# How it was run: as §1
# [7] = molecular target: GlcNAc(b1-4)GlcNAc(b1-4)GlcNAc
# How it was run: as §1
# [8] = molecular target: GlcNAc(b1-4)GlcNAc(b1-4)GlcNAc(b1-4)GlcNAc(b1-4)GlcNAc
# How it was run: as §1
# [9] = molecular target: GlcNAc(b1-4)GlcNAc(b1-4)GlcNAc(b1-4)GlcNAc(b1-4)GlcNAc(b1-4)GlcNAc
# How it was run: as §1
# [10] = molecular target: GlcNAc(b1-4)[GlcNAc(b1-6)]GalNAc
# How it was run: as §1
# [11] = molecular target: GlcNAc(b1-6)Gal(b1-4)GlcNAc
# How it was run: as §1
# GlcNAc(b1-6)GalNAc = molecular target: GlcNAc(b1-6)GalNAc
# How it was run: as §1
# Kdn(a2-3)Gal(b1-3)GlcNAc = molecular target: Kdn(a2-3)Gal(b1-3)GlcNAc
# How it was run: as §1
# Kdn(a2-3)Gal(b1-4)GlcNAc = molecular target: Kdn(a2-3)Gal(b1-4)GlcNAc
# How it was run: as §1
# [12] = molecular target: Man(a1-2)Man(a1-2)Man(a1-3)Man
# How it was run: as §1
# [13] = molecular target: Man(a1-2)Man(a1-2)Man(a1-6)[Man(a1-3)]Man
# How it was run: as §1
# Man(a1-2)Man(a1-3)Man = molecular target: Man(a1-2)Man(a1-3)Man
# How it was run: as §1
# [14] = molecular target: Man(a1-2)Man(a1-3)[Man(a1-2)Man(a1-6)]Man
# How it was run: as §1
# [15] = molecular target: Man(a1-2)Man(a1-3)[Man(a1-2)Man(a1-6)]Man(a1-6)[Man(a1-2)Man(a1-2)Man(a1-3)]Man(b1-4)GlcNAc(b1-4)GlcNAc
# How it was run: as §1
# [16] = molecular target: Man(a1-2)Man(a1-3)[Man(a1-6)]Man(a1-6)[Man(a1-2)Man(a1-3)]Man(b1-4)GlcNAc(b1-4)GlcNAc
# How it was run: as §1
# [17] = molecular target: Man(a1-2)Man(a1-6)[Man(a1-3)]Man(a1-6)[Man(a1-2)Man(a1-2)Man(a1-3)]Man(b1-4)GlcNAc(b1-4)GlcNAc
# How it was run: as §1
# Man(a1-3)[Man(a1-6)]Man = molecular target: Man(a1-3)[Man(a1-6)]Man
# How it was run: as §1
# [18] = molecular target: Man(a1-3)[Man(a1-6)]Man(a1-6)[Man(a1-2)Man(a1-3)]Man(b1-4)GlcNAc(b1-4)GlcNAc
# How it was run: as §1
# [19] = molecular target: Man(a1-3)[Man(a1-6)]Man(a1-6)[Man(a1-3)]Man(b1-4)GlcNAc(b1-4)GlcNAc
# How it was run: as §1
# [20] = molecular target: Man(a1-3)[Man(a1-6)]Man(b1-4)GlcNAc(b1-4)GlcNAc
# How it was run: as §1
# Man(b1-4)GlcNAc = molecular target: Man(b1-4)GlcNAc
# How it was run: as §1
# Neu5Ac(a2-3)Gal = molecular target: Neu5Ac(a2-3)Gal
# How it was run: as §1
# [21] = molecular target: Neu5Ac(a2-3)Gal(b1-3)GalNAc
# How it was run: as §1
# [22] = molecular target: Neu5Ac(a2-3)Gal(b1-3)GalNAc(b1-3)Gal(a1-4)Gal(b1-4)Glc
# How it was run: as §1
# [23] = molecular target: Neu5Ac(a2-3)Gal(b1-3)GalNAc(b1-3)Gal(b1-4)GlcNAc
# How it was run: as §1
# [24] = molecular target: Neu5Ac(a2-3)Gal(b1-3)GalNAc(b1-4)[Neu5Ac(a2-3)]Gal(b1-4)Glc
# How it was run: as §1
# [25] = molecular target: Neu5Ac(a2-3)Gal(b1-3)GalNAc6S
# How it was run: as §1
# [26] = molecular target: Neu5Ac(a2-3)Gal(b1-3)GlcNAc
# How it was run: as §1
# [27] = molecular target: Neu5Ac(a2-3)Gal(b1-3)GlcNAc6S
# How it was run: as §1
# [28] = molecular target: Neu5Ac(a2-3)Gal(b1-3)[Fuc(a1-4)]GlcNAc
# How it was run: as §1
# [29] = molecular target: Neu5Ac(a2-3)Gal(b1-3)[Fuc(a1-4)]GlcNAc(b1-3)Gal(b1-4)[Fuc(a1-3)]GlcNAc
# How it was run: as §1
# [30] = molecular target: Neu5Ac(a2-3)Gal(b1-3)[Neu5Ac(a2-3)Gal(b1-4)]GlcNAc
# How it was run: as §1
# [31] = molecular target: Neu5Ac(a2-3)Gal(b1-3)[Neu5Ac(a2-6)]GalNAc
# How it was run: as §1
# Neu5Ac(a2-3)Gal(b1-4)Glc = molecular target: Neu5Ac(a2-3)Gal(b1-4)Glc
# How it was run: as §1
# [32] = molecular target: Neu5Ac(a2-3)Gal(b1-4)GlcNAc
# How it was run: as §1
binder,measurement,setting,value
B1,glycan array binding signal (z-score),[1],-0.077
same,glycan array binding signal (z-score),[2],-0.335
same,glycan array binding signal (z-score),GlcNAc(b1-3)GalNAc,-0.247
same,glycan array binding signal (z-score),[3],-0.336
same,glycan array binding signal (z-score),[4],-0.276
same,glycan array binding signal (z-score),[5],0.153
same,glycan array binding signal (z-score),[6],-0.125
same,glycan array binding signal (z-score),[7],-0.369
same,glycan array binding signal (z-score),[8],-0.21
same,glycan array binding signal (z-score),[9],-0.062
same,glycan array binding signal (z-score),[10],-0.138
same,glycan array binding signal (z-score),[11],-0.234
same,glycan array binding signal (z-score),GlcNAc(b1-6)GalNAc,-0.106
same,glycan array binding signal (z-score),Kdn(a2-3)Gal(b1-3)GlcNAc,-0.178
same,glycan array binding signal (z-score),Kdn(a2-3)Gal(b1-4)GlcNAc,-0.159
same,glycan array binding signal (z-score),[12],1.94
same,glycan array binding signal (z-score),[13],-0.405
same,glycan array binding signal (z-score),Man(a1-2)Man(a1-3)Man,-0.084
same,glycan array binding signal (z-score),[14],-0.217
same,glycan array binding signal (z-score),[15],-0.213
same,glycan array binding signal (z-score),[16],-0.286
same,glycan array binding signal (z-score),[17],-0.155
same,glycan array binding signal (z-score),Man(a1-3)[Man(a1-6)]Man,-0.366
same,glycan array binding signal (z-score),[18],-0.185
same,glycan array binding signal (z-score),[19],-0.02
same,glycan array binding signal (z-score),[20],-0.199
same,glycan array binding signal (z-score),Man(b1-4)GlcNAc,-0.211
same,glycan array binding signal (z-score),Neu5Ac(a2-3)Gal,-0.212
same,glycan array binding signal (z-score),[21],0.005
same,glycan array binding signal (z-score),[22],-0.144
same,glycan array binding signal (z-score),[23],-0.257
same,glycan array binding signal (z-score),[24],-0.302
same,glycan array binding signal (z-score),[25],-0.077
same,glycan array binding signal (z-score),[26],-0.033
same,glycan array binding signal (z-score),[27],-0.23
same,glycan array binding signal (z-score),[28],-0.133
same,glycan array binding signal (z-score),[29],-0.255
same,glycan array binding signal (z-score),[30],-0.008
same,glycan array binding signal (z-score),[31],0.051
same,glycan array binding signal (z-score),Neu5Ac(a2-3)Gal(b1-4)Glc,0.296
same,glycan array binding signal (z-score),[32],-0.213
